In PubChem BioAssay AID894 (National Center for Advancing Translational Sciences (NCATS), 2007):
The whole screen tested about 150,000 compounds, of which about 6,500 (4.3%) were called active. The inconclusive results got no clear call from the source; some entries with a clear call stand among them for comparison. The call rests on the fitted dose curve; in most records, active means well fitted inhibition curve with a large enough effect (not every such curve was filed as active); inconclusive means small, poorly fitted or top-dose-only effect, or another doubt; inactive means no such curve, though single readings can be large or run the other way. Potencies of inconclusive entries are left out as doubtful fits.

These compounds were tested against 15-hydroxyprostaglandin dehydrogenase [NAD(+)] (Homo sapiens) (UniProt P15428) (assay: qHTS Assay for Inhibitors of HPGD (15-Hydroxyprostaglandin Dehydrogenase)). Settings: purified HPGD, NADH fluorescence kinetic, PGE2 substrate; activity change, negative = inhibition: stronger effect = lower value.
Sequence of UniProt P15428 (P15428 whole entry, looked up): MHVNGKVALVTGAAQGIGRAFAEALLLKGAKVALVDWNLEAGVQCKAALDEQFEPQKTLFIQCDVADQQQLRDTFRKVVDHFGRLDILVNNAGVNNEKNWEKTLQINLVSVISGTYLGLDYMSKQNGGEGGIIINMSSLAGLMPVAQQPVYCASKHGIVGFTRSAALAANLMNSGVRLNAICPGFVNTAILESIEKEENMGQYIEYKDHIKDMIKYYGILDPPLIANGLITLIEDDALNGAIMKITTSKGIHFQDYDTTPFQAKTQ
Procedure, shortened: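 NADH formation kinetics: reaction with 30 uM PGE2 and 1 mM NAD+ (final), 20 nM enzyme, Tris-HCl pH 8 with Tween 20, after 15 min compound preincubation at room temperature. Fluorescence change, last versus first of five reads.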
On the % scale 0 is the no-effect control and ±100 the full control effect; potency means the concentration at half of the fitted maximal effect; tags describe the fitted curve by direction and shape.

Structure (SMILES)	activity change, negative = inhibition	Potency
O=C(OCc1nnc(-c2ccc(Cl)cc2)o1)c1ccncc1	inactive: -28.6%	
O=c1[nH]c(-c2ccco2)nc2sc3c(c12)CCCC3		inconclusive [inhibitor, partial curve]
COc1cc2ccc(=O)oc2c(OC)c1OC		inconclusive [inhibitor, partial curve]
Cc1sc(NC(=O)c2ccccc2)c(C(=O)NC(C)C)c1C		inconclusive [inhibitor, single point]
O=C(NCCCN1CCCC1)c1cccc(N2CCCC2=O)c1		inconclusive [inhibitor, single point]
Cc1ccc(N(C)S(=O)(=O)c2cccc(C(=O)Nc3nc4ccccc4[nH]3)c2)cc1		inconclusive [inhibitor, partial curve]
COCc1cc(C)n(CC(=O)N/N=C/c2ccc(-c3ccc(Cl)c(C(=O)O)c3)o2)c(=O)c1C#N		inconclusive [inhibitor, partial curve]
CCCCc1nc(NCCNC(=O)c2ccccc2)c(C#N)c2c1CSC(C)(C)C2		inconclusive [inhibitor, partial curve]
CCCCCCCCCCCCCCCCOCC(CO)OC(C)=O (stereo not drawn)	inactive: -6.69%	
C=CCSc1nc2ccccc2n1Cc1nnc(-c2cccs2)o1		inconclusive [inhibitor, partial curve]
O=C(CSC1=Nc2ccccc2C2=NC(c3ccccc3)C(=O)N12)NC1CCCCC1 (stereo not drawn)		inconclusive [inhibitor, partial curve]
CCCCC[C@H](O)/C=C/[C@@H]1[C@@H](C/C=C\CCCC(=O)O)[C@@H](O)C[C@@H]1O	inactive: -15.5%	
CC(=O)Nc1ccc(NC(=O)c2oc3cc(C)c(C)cc3c2C)cc1		inconclusive [inhibitor, single point]
CC(=O)c1cnc2cc(-c3ccc(Cl)cc3)nn2c1C		inconclusive [inhibitor, single point]
NC(N)=Nc1nc(CSCC/C(N)=N\S(N)(=O)=O)cs1	inactive: -7.62%	
CCOC(=O)c1[nH]nc2c1C(=O)N(Cc1ccccc1)C2=O		active: 8.91 µM
Cc1cc(C)cc(NC(=S)NCc2cccs2)c1		active: 14.1 µM
C=Cn1ccnc1P(=S)(c1ccc2c(c1)c1ccccc1n2CC)c1nccn1C=C		inconclusive [inhibitor, partial curve]
Cc1ccc(C(=O)COC(=O)c2cc(Cl)nc3ccccc23)cc1		inconclusive [inhibitor, full curve, poor fit]
CCN(CC)c1ccc(CN2CCCCCC2)cc1	inactive: -13.8%	
CN(C)c1ccc(-c2cc(NCc3cccnc3)ncn2)cc1		inconclusive [inhibitor, partial curve]
N#Cc1nc(-c2cccs2)oc1NCC1CCCO1 (stereo not drawn)		inconclusive [inhibitor, full curve]

Structure (SMILES)	activity change, negative = inhibition	Potency
COc1ccc2c(c1)nc(SCC(=O)c1ccc(Br)s1)n2C		inconclusive [inhibitor, single point]
Cc1cc(SCC(=O)N2CCC(c3noc4ccc(F)cc34)CC2)nc2ccccc12		inconclusive [inhibitor, partial curve]
COc1ccc(-c2nnc(CSc3ncnc4sc5c(c34)CCC5)o2)cc1OC		inconclusive [inhibitor, partial curve]
COc1cccc(C(=O)Nc2ccc(-c3nc4ccccc4o3)c(O)c2)c1		inconclusive [inhibitor, partial curve]
O=S(=O)(c1cccc(-c2csc(-c3cccnc3)n2)c1)N1CCCCC1		inconclusive [inhibitor, partial curve]
Cc1cc(-c2ccccc2)n2ncc(C#N)c2n1		inconclusive [inhibitor, partial curve]
COCCn1nnnc1CN(Cc1cccnc1)Cc1cc2cc(OC)ccc2[nH]c1=O		inconclusive [inhibitor, partial curve]
Cc1ccnc(N2CCC(C(=O)NNC(=O)c3ccccc3C)CC2)n1		inconclusive [inhibitor, partial curve]
Cc1c(C(=O)Nc2ccc(F)cc2)oc2ccc(S(=O)(=O)N3CC(C)CC(C)C3)cc12 (stereo not drawn)		inconclusive [inhibitor, full curve, poor fit]
COC(=O)c1ncn(C2OC(COC(C)=O)C(OC(C)=O)C2OC(C)=O)n1 (stereo not drawn)	inactive: 4.37%	
O=C(N/N=C/c1cc(Br)ccc1O)C(c1ccncc1)N1CCOCC1 (stereo not drawn)		inconclusive [inhibitor, partial curve]
Cc1ccc(C)c(C(=O)CSc2n[nH]c(C(C)C)n2)c1		active: 15.8 µM
CC(C)NC(=O)c1cnc(N2CCN(c3ccccn3)CC2)c2ccccc12		inconclusive [inhibitor, single point]
Cc1ccc(S(=O)(=O)/C(C#N)=C/c2c(N3CCN(C)CC3)nc3c(C)cccn3c2=O)cc1		inconclusive [inhibitor, partial curve]
COC(=O)C1(CC(C)C)C=C2C(=C(C(C)C)C(=O)C2C)CN1 (stereo not drawn)		inconclusive [inhibitor, partial curve]
N#C/C(=C1\C(=O)Nc2c(Cl)cc(Cl)cc21)c1nnc2n1CCCCC2	inactive: -23.4%	
CCCCC(=O)NCCNC(=O)c1cc(OCC(F)(F)F)ccc1OCC(F)(F)F	inactive: -7.32%	
O=C(c1ccco1)N1CCN(C(c2cccs2)c2nnnn2C2CCCC2)CC1 (stereo not drawn)	inactive: 0.756%	
Cn1c(=O)c2c3c(sc2n2cnnc12)CCC3	inactive: -12.4%	
Cc1cc(C(=O)CSc2nnc(NCc3ccccc3)s2)c(C)n1C		active: 17.8 µM
CCN(Cc1ccccc1)c1ccc(/C=N/NC(=O)c2cccc(S(=O)(=O)N3CCOCC3)c2)cc1		inconclusive [inhibitor, partial curve]
